Substitutions are numbered along the chain they refer to; changes in the protein carry UniProt numbers. The list shows a part of the results.
T1: RBFOX1 RRM (Homo sapiens, UniProt Q9NWB1 109-208)
T1 sequence: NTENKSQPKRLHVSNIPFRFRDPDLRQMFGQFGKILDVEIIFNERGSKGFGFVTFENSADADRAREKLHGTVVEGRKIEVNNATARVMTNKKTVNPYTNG

B1: CACCGAC (DNA:RNA)
RNA: GGGAGACCGGAAUUCAGAUUGUCCCACCGACUUAAAUCCCGUCGUAGCCACCA
DNA 1: CAATCTGAATTCCGGTCTCCC
DNA 2: TGGTGGCTACGACGGGATT
B2: UCAUUAC (DNA:RNA)
RNA: B1 RNA with C25U, A26C, C27A, C28U, G29U
DNA 1: CAATCTGAATTCCGGTCTCCC
DNA 2: TGGTGGCTACGACGGGATT
B3: GAAUUGG (DNA:RNA)
RNA: B1 RNA with C25G, C27A, C28U, G29U, A30G, C31G
DNA 1: CAATCTGAATTCCGGTCTCCC
DNA 2: TGGTGGCTACGACGGGATT
B4: AGUAGUG (DNA:RNA)
RNA: B1 RNA with C25A, A26G, C27U, C28A, A30U, C31G
DNA 1: CAATCTGAATTCCGGTCTCCC
DNA 2: TGGTGGCTACGACGGGATT
B5: UAUAUAG (DNA:RNA)
RNA: B1 RNA with C25U, C27U, C28A, G29U, C31G
DNA 1: CAATCTGAATTCCGGTCTCCC
DNA 2: TGGTGGCTACGACGGGATT
B6: UUCAACA (DNA:RNA)
RNA: B1 RNA with C25U, A26U, C28A, G29A, A30C, C31A
DNA 1: CAATCTGAATTCCGGTCTCCC
DNA 2: TGGTGGCTACGACGGGATT
B7: AAGACGU (DNA:RNA)
RNA: B1 RNA with C25A, C27G, C28A, G29C, A30G, C31U
DNA 1: CAATCTGAATTCCGGTCTCCC
DNA 2: TGGTGGCTACGACGGGATT
B8: CAACGCA (DNA:RNA)
RNA: B1 RNA with C27A, A30C, C31A
DNA 1: CAATCTGAATTCCGGTCTCCC
DNA 2: TGGTGGCTACGACGGGATT
B9: CUAUAGA (DNA:RNA)
RNA: B1 RNA with A26U, C27A, C28U, G29A, A30G, C31A
DNA 1: CAATCTGAATTCCGGTCTCCC
DNA 2: TGGTGGCTACGACGGGATT
B10: UUUGAUC (DNA:RNA)
RNA: B1 RNA with C25U, A26U, C27U, C28G, G29A, A30U
DNA 1: CAATCTGAATTCCGGTCTCCC
DNA 2: TGGTGGCTACGACGGGATT
B11: CUUGAAG (DNA:RNA)
RNA: B1 RNA with A26U, C27U, C28G, G29A, C31G
DNA 1: CAATCTGAATTCCGGTCTCCC
DNA 2: TGGTGGCTACGACGGGATT
B12: GAACCCA (DNA:RNA)
RNA: B1 RNA with C25G, C27A, G29C, A30C, C31A
DNA 1: CAATCTGAATTCCGGTCTCCC
DNA 2: TGGTGGCTACGACGGGATT
B13: GCGGAAA (DNA:RNA)
RNA: B1 RNA with C25G, A26C, C27G, C28G, G29A, C31A
DNA 1: CAATCTGAATTCCGGTCTCCC
DNA 2: TGGTGGCTACGACGGGATT
B14: CGAGUUG (DNA:RNA)
RNA: B1 RNA with A26G, C27A, C28G, G29U, A30U, C31G
DNA 1: CAATCTGAATTCCGGTCTCCC
DNA 2: TGGTGGCTACGACGGGATT
B15: CAGCGUC (DNA:RNA)
RNA: B1 RNA with C27G, A30U
DNA 1: CAATCTGAATTCCGGTCTCCC
DNA 2: TGGTGGCTACGACGGGATT
B16: UACGACA (DNA:RNA)
RNA: B1 RNA with C25U, C28G, G29A, A30C, C31A
DNA 1: CAATCTGAATTCCGGTCTCCC
DNA 2: TGGTGGCTACGACGGGATT
B17: UGCGAGU (DNA:RNA)
RNA: B1 RNA with C25U, A26G, C28G, G29A, A30G, C31U
DNA 1: CAATCTGAATTCCGGTCTCCC
DNA 2: TGGTGGCTACGACGGGATT
B18: GUCGUCC (DNA:RNA)
RNA: B1 RNA with C25G, A26U, C28G, G29U, A30C
DNA 1: CAATCTGAATTCCGGTCTCCC
DNA 2: TGGTGGCTACGACGGGATT
B19: ACGCCAA (DNA:RNA)
RNA: B1 RNA with C25A, A26C, C27G, G29C, C31A
DNA 1: CAATCTGAATTCCGGTCTCCC
DNA 2: TGGTGGCTACGACGGGATT
B20: CGGUAGC (DNA:RNA)
RNA: B1 RNA with A26G, C27G, C28U, G29A, A30G
DNA 1: CAATCTGAATTCCGGTCTCCC
DNA 2: TGGTGGCTACGACGGGATT
B21: AGGUCAU (DNA:RNA)
RNA: B1 RNA with C25A, A26G, C27G, C28U, G29C, C31U
DNA 1: CAATCTGAATTCCGGTCTCCC
DNA 2: TGGTGGCTACGACGGGATT
B22: GAGUGAC (DNA:RNA)
RNA: B1 RNA with C25G, C27G, C28U
DNA 1: CAATCTGAATTCCGGTCTCCC
DNA 2: TGGTGGCTACGACGGGATT
B23: GACUACG (DNA:RNA)
RNA: B1 RNA with C25G, C28U, G29A, A30C, C31G
DNA 1: CAATCTGAATTCCGGTCTCCC
DNA 2: TGGTGGCTACGACGGGATT
B24: GUCGUCG (DNA:RNA)
RNA: B1 RNA with C25G, A26U, C28G, G29U, A30C, C31G
DNA 1: CAATCTGAATTCCGGTCTCCC
DNA 2: TGGTGGCTACGACGGGATT
B25: GGAUGAU (DNA:RNA)
RNA: B1 RNA with C25G, A26G, C27A, C28U, C31U
DNA 1: CAATCTGAATTCCGGTCTCCC
DNA 2: TGGTGGCTACGACGGGATT
B26: AAGUUCU (DNA:RNA)
RNA: B1 RNA with C25A, C27G, C28U, G29U, A30C, C31U
DNA 1: CAATCTGAATTCCGGTCTCCC
DNA 2: TGGTGGCTACGACGGGATT
B27: AAGAUGU (DNA:RNA)
RNA: B1 RNA with C25A, C27G, C28A, G29U, A30G, C31U
DNA 1: CAATCTGAATTCCGGTCTCCC
DNA 2: TGGTGGCTACGACGGGATT
B28: ACACUCA (DNA:RNA)
RNA: B1 RNA with C25A, A26C, C27A, G29U, A30C, C31A
DNA 1: CAATCTGAATTCCGGTCTCCC
DNA 2: TGGTGGCTACGACGGGATT
B29: UUCCCUG (DNA:RNA)
RNA: B1 RNA with C25U, A26U, G29C, A30U, C31G
DNA 1: CAATCTGAATTCCGGTCTCCC
DNA 2: TGGTGGCTACGACGGGATT
B30: CGCACCC (DNA:RNA)
RNA: B1 RNA with A26G, C28A, G29C, A30C
DNA 1: CAATCTGAATTCCGGTCTCCC
DNA 2: TGGTGGCTACGACGGGATT
B31: ACGCUUU (DNA:RNA)
RNA: B1 RNA with C25A, A26C, C27G, G29U, A30U, C31U
DNA 1: CAATCTGAATTCCGGTCTCCC
DNA 2: TGGTGGCTACGACGGGATT

Each binder was assayed against T1, RBFOX1 RRM (assay: EMSA; HiTS-Eq, 1 nM pool, 10 min; buffer printed only for the single-RNA assays: 10 mM Tris pH 7.5, 150 mM NaCl, 3.4 mM EDTA, 0.001% NP-40, 30 C). Details: tags: His6 N-terminal (pET28a); label: 5' 32P.
Procedure, shortened: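 A pool of RNA with 7 randomized nucleotides, 5′-radiolabelled and with DNA-annealed flanks, was equilibrated at 1 nM for 10 min in 50 µL with purified RbFox RRM, wild type or mutant, across increasing protein concentrations. Free RNA was separated by 8% native PAGE, excised, reverse-transcribed, barcoded by PCR and sequenced. Relative association constants were obtained from read-count changes of each RNA species versus the control reaction and normalised to the cognate motif.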

| Binder | binding signal |
| --- | --- |
| B1 | 0.00223 KA relative to UGCAUGU |
| B2 | 0.00273 KA relative to UGCAUGU |
| B3 | 0.0144 KA relative to UGCAUGU |
| B4 | 0.0106 KA relative to UGCAUGU |
| B5 | 0.0105 KA relative to UGCAUGU |
| B6 | 0.00131 KA relative to UGCAUGU |
| B7 | 0.00364 KA relative to UGCAUGU |
| B8 | 0.00465 KA relative to UGCAUGU |
| B9 | 0.00833 KA relative to UGCAUGU |
| B10 | 0.0148 KA relative to UGCAUGU |
| B11 | 0.0157 KA relative to UGCAUGU |
| B12 | 0.00229 KA relative to UGCAUGU |
| B13 | 0.00927 KA relative to UGCAUGU |
| B14 | 0.0155 KA relative to UGCAUGU |
| B15 | 0.00509 KA relative to UGCAUGU |
| B16 | 0.00182 KA relative to UGCAUGU |

| Binder | binding signal |
| --- | --- |
| B17 | 0.0291 KA relative to UGCAUGU |
| B18 | 0.0149 KA relative to UGCAUGU |
| B19 | 0.00192 KA relative to UGCAUGU |
| B20 | 0.0146 KA relative to UGCAUGU |
| B21 | 0.011 KA relative to UGCAUGU |
| B22 | 0.00727 KA relative to UGCAUGU |
| B23 | 0.0106 KA relative to UGCAUGU |
| B24 | 0.017 KA relative to UGCAUGU |
| B25 | 0.0235 KA relative to UGCAUGU |
| B26 | 0.00716 KA relative to UGCAUGU |
| B27 | 0.00916 KA relative to UGCAUGU |
| B28 | 0.00153 KA relative to UGCAUGU |
| B29 | 0.0127 KA relative to UGCAUGU |
| B30 | 0.0102 KA relative to UGCAUGU |
| B31 | 0.00817 KA relative to UGCAUGU |

Source: publication PMC9911399, “Two distinct binding modes provide the RNA-binding protein RbFox with extraordinary sequence specificity”
